This is one part of the list. At the low end of the ranking, values are background and their order means little.

The test has as its target T1, GST-Rok-C97-191 (UniProt O34857).
T1 sequence: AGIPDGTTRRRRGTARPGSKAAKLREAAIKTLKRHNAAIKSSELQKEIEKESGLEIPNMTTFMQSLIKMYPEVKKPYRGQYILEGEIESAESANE
In words: protein binding microarray.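 Note: rank score from −0.5 (least bound) to 0.5 (best bound).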 As to conditions: Rok is a gene silencer of Bacillus subtilis; high values mean tight binding; most listed sequences are background and not binding sites; double strand, one strand shown.
Consider TTTAGAAA, for which the binding signal was 0.175 E-score.
For the sequence GAGACACC, the binding signal was -0.228 E-score.
For CCGATGTC, the binding signal is -0.213 E-score.
In turn, TAGCGATA returned a binding signal of 0.209 E-score.
GATGCCGC: the binding signal is -0.271 E-score.
The sequence ATAATGTA came in with a binding signal of 0.405 E-score.
As to ACTCGCAC, the binding signal was -0.078 E-score.
On to CGTGAAGC, for which the binding signal was -0.266 E-score.
As for ACCCTTGG, the binding signal is -0.176 E-score.
CCATGACA: the binding signal was -0.0439 E-score.
As for ATGAACGG, the binding signal was determined as 0.0111 E-score.
Sequence GGAATTTA came in with a binding signal of 0.241 E-score.
For the sequence GACACTGA, the binding signal is -0.134 E-score.
The same measure for ACTCAACG: -0.123 E-score; for GGATGATA: 0.113 E-score.
In turn, AGTCATGA returned a binding signal of 0.0312 E-score.
Under AGTTACGA stands 0.197 E-score; under GCTAGCTA, 0.119 E-score; under CTCCACAA, -0.145 E-score.
The same measure for AGCAACGC: -0.185 E-score; for ACACTATC: 0.204 E-score; for AAAGATCT: 0.0493 E-score.
Under AGTGCTCG stands -0.142 E-score.
In the case of ACGCTTCC, the binding signal was -0.177 E-score.
The same measure for GGTTCCCA: -0.316 E-score; for CGTATCAG: -0.0859 E-score; for CAGGACAG: -0.206 E-score.
For GGTCGATA, the binding signal was determined as 0.0618 E-score.
Consider TGAAGTCA, for which the binding signal was -0.0476 E-score.
For the sequence CAGGGGTA, the binding signal amounted to 0.0989 E-score.
The same measure for GACTGGGA: -0.0997 E-score; for GCCAAGTA: 0.072 E-score; for GAACCCTC: -0.268 E-score.
Under ATAAAGAC stands -0.0384 E-score; under ATATAGCC, 0.135 E-score.
In the case of GCAGGCCC, the binding signal was -0.239 E-score.
As for GCGGTCTA, the binding signal is -0.0811 E-score.
As to AGTTGGGA, the binding signal was found to be 0.0355 E-score.
As to CCCCGACG, the binding signal was -0.162 E-score.
ATGCTCGA came in with a binding signal of 0.0667 E-score.
For the sequence ACTTTTAT, the binding signal worked out at 0.271 E-score.
GGGGACCC: the binding signal is -0.278 E-score.
On to AATCCTGA, for which the binding signal is -0.0967 E-score.
On to CAGGACTC, for which the binding signal was -0.354 E-score.
CATCACCA came in with a binding signal of 0.054 E-score.
The sequence ATCATTGG gave a binding signal of 0.0775 E-score.
As for CTAGAAAC, the binding signal came to 0.34 E-score.
Turning to GACCTATC, the binding signal was 0.11 E-score.
Consider GGCCAAAA, for which the binding signal is -0.264 E-score.
CATAGTAC: the binding signal is 0.266 E-score.
Sequence CGACGTGA had a binding signal of 0.105 E-score.
Under ACAGTGCA stands -0.0746 E-score; under CCCGATCA, -0.0678 E-score.
With ATCTGAGC, the binding signal was -0.0162 E-score.
CCGACATC: the binding signal was -0.283 E-score.
Under ATAAATCC stands 0.0577 E-score; under CTCGGCGA, -0.213 E-score.
Turning to CGTCACGA, the binding signal was -0.124 E-score.
For the sequence ATCGTCTG, the binding signal is -0.0463 E-score.
The same measure for ATACTCGG: 0.0546 E-score; for CATCCGTC: -0.224 E-score.
The same measure for CAAATCAA: -0.0279 E-score.
ATCGGGAA returned a binding signal of 0.0603 E-score.
For the sequence ATTACCCC, the binding signal was -0.0257 E-score.
Regarding CACCGGCG, the binding signal was -0.25 E-score.
Sequence ATTTGGAA returned a binding signal of 0.102 E-score.
The same measure for CTCTGCCA: -0.3 E-score; for ATTTCCAG: 0.191 E-score; for GGCACAAA: -0.222 E-score.
Consider AGACCAGC, for which the binding signal is -0.0921 E-score.
Consider CAGCGAGG, for which the binding signal was -0.246 E-score.
TCGTTTAA: the binding signal was 0.00225 E-score.
On to CATGCTGA, for which the binding signal is -0.19 E-score.
As to ACACGAAT, the binding signal is 0.0134 E-score.
Turning to CTCACGTA, the binding signal is 0.0177 E-score.
For AGGACTTC, the binding signal was found to be 0.00999 E-score.
Take CACTCAGG: the binding signal is -0.236 E-score.
As to AATCTGTC, the binding signal is -0.00599 E-score.
CAAATTTC showed a binding signal of 0.0612 E-score.
ATGCAATC came in with a binding signal of 0.192 E-score.
The sequence GAATTTGA gave a binding signal of 0.074 E-score.
Consider AACTAGCC, for which the binding signal worked out at 0.107 E-score.
As for ACTAGTCT, the binding signal is 0.215 E-score.
CCCTACAC: the binding signal is -0.0926 E-score.
CGTCTATA displayed a binding signal of 0.0552 E-score.
With ACGGATAA, the binding signal is 0.0199 E-score.
The same measure for ACTCCCGA: 0.0763 E-score.
ACGCCGAC: the binding signal is -0.229 E-score.
The same measure for AAGTATTC: 0.138 E-score; for ACACGCTA: 0.197 E-score.
Turning to AGCCTACT, the binding signal was found to be 0.0687 E-score.
In turn, AACTGAGT had a binding signal of 0.101 E-score.
The same measure for ACCATTGC: 0.0262 E-score; for CTAGGACC: -0.133 E-score; for AAGCCTGT: -0.153 E-score.
With GGGCGCTA, the binding signal is -0.121 E-score.
Under GCCGCATA stands -0.121 E-score; under GGAACACC, -0.346 E-score; under CTGCTACC, -0.0872 E-score.
Turning to ATTGGGCG, the binding signal is -0.0948 E-score.
In the case of ATGATAGC, the binding signal was 0.15 E-score.
Turning to AAAAATGA, the binding signal is 0.0202 E-score.
On to AGATTGAC, for which the binding signal was 0.0153 E-score.
Under AACTCGGC stands 0.127 E-score; under CAGGTGGG, -0.339 E-score; under ATTTTATA, 0.385 E-score.
On to AAGCTAGA, for which the binding signal stood at 0.231 E-score.
Take ACAGTCGA: the binding signal is 0.0501 E-score.
As for AGTAGCCG, the binding signal is -0.00732 E-score.
Consider ATGGGTAA, for which the binding signal is 0.142 E-score.

The values above are taken from publication PMC6212790.
